Several values for one entry are separate records, joined by “and”; a condition that tells them apart may be missing. Equal entries are not always repeated. This is one part of the list. These are further read-outs of the screen, such as a control signal, another cell line or another target. No call is given for them.
Assays:
Test in all cases: Primary Screen for Target Class Profiling of Small Molecule Inhibitors of Methyltransferases
[1] = target: Glycine N-methyltransferase (Homo sapiens) (UniProt Q14749); conditions: purified enzyme, MTase-Glo SAH luminescence; measured here: GNMT inhibition; at 40 µM; stronger effect = lower value
Summary of the method: (§1)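 Each enzyme was assayed with SAM and its substrate. SAH formation detected by MTase-Glo luminescence; single-point 40 uM screen[…].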

[2] = target: Guanidinoacetate N-methyltransferase (Homo sapiens) (UniProt Q14353); conditions: purified enzyme, MTase-Glo SAH luminescence; measured here: GAMT inhibition; at 40 µM; stronger effect = lower value
Summary of the method: as §1

[3] = target: Histamine N-methyltransferase (Homo sapiens) (UniProt P50135); conditions: purified enzyme, MTase-Glo SAH luminescence; measured here: HNMT inhibition; at 40 µM; stronger effect = lower value
Summary of the method: as §1

[4] = target: Nicotinamide N-methyltransferase (Homo sapiens) (UniProt P40261); conditions: purified enzyme, MTase-Glo SAH luminescence; measured here: NNMT inhibition; at 40 µM; stronger effect = lower value
Summary of the method: as §1

[5] = target: Phenylethanolamine N-methyltransferase (Homo sapiens) (UniProt P11086); conditions: purified enzyme, MTase-Glo SAH luminescence; measured here: PNMT inhibition; at 40 µM; stronger effect = lower value
Summary of the method: as §1
% is set by controls: 0 for no effect and ±100 for the full control effect.

Row | SMILES | activity change, negative = inhibition [1] | activity change, negative = inhibition [2] [%] | activity change, negative = inhibition [3] | activity change, negative = inhibition [4] | activity change, negative = inhibition [5]
1 | Cn1c2c(c3ccccc31)C(C(=O)NCc1ccccc1)N(Cc1ccco1)C(=O)CS2 (stereo not given) | 2.66% | 0 | 2.98% | -1.56% | 0.533%
2 | CCOc1ncccc1C(=O)N[C@H](c1cncc(OC)c1)C1CC(O)C1 (stereo not given in full) | -3.88% | -1.49 | -0.624% | -6.86% | 12.5%
3 | Cc1nnc2n1C(C)CN(C(=O)Cn1nnc(-c3ccc(F)cc3)n1)C2 (stereo not given) | -5.65% | -13.5 | -2.51% | -10.3% | -4.89%
4 | COc1c(OCCCN2CCOCC2)ccc2c3n(c(=NC(=O)c4cnc(N)nc4)nc12)CCN3 | -0.878% | -1.96 | -0.163% | -11.7% | -8.14%
5 | COc1ccc(N2C(=O)c3cc(-c4cccs4)nn3CC2(C)C(=O)NC2CCCCC2)cc1 (stereo not given) | -4.73% | 3.72 | 1.23% | 5.34% | -3.05%
6 | COc1ccc(-c2cc3n(n2)CC(C)(C(=O)NC2CCCCC2)N(CCC(C)C)C3=O)cc1 (stereo not given) | -0.167% | 0 | 3.2% | -3.57% | -4.5%
7 | O=C(CCc1nnc2n(CCc3ccccc3)c(=O)c3ccccc3n12)NCCCN1CCOCC1 | -3.06% | -13.9 | 5.51% | 14.2% | 2.56%
8 | CCc1ccc(CN2CCCC23Cc2ccccc2CNC3=O)s1 (stereo not given) | -7.64% | -6.95 | -9.07% | -26.3% | -15.7%
9 | Cc1ccccc1N1C(=O)c2cc3sccc3n2CC1(C)C(=O)NC1CCCCCC1 (stereo not given) | 2.6% | 1.83 | 2.48% | -2.36% | -3.1%
10 | O=C(Cn1c(=O)oc2cc(S(=O)(=O)N3CCCC3)ccc21)Nc1ccccc1Br | 0.772% | 3.83 | 0.413% | -3.21% | -3.05%
11 | CC1=NOC2(CCN(Cc3ccc(N(C)C)cc3)CC2)C1 | -6.32% | -7.68 | -7.33% | -8.46% | -13.3%
12 | CCc1cc2c(cc3n2CC(C)(C(=O)NC2CCCCCC2)N(CCCOC)C3=O)s1 (stereo not given) | 5.89% | 27.8 | 7.93% | 0.387% | 2.24%
13 | Cc1noc([C@@H](C)NCc2cccc(Cl)c2)c1C(=O)O | -0.122% | -0.881 | 2.54% | 1.21% | 0.524%
14 | CCNC(=O)C1OC(n2cnc3c(N)nc(NCCc4ccc(CCC(=O)O)cc4)nc32)C(O)C1O (stereo not given) | -8.26% | -5.78 | -5.21% | -14.8% | -7.59%
15 | CN1CCN(C(=O)c2cc3n(n2)CC(C)(C(=O)NC2CCCCCC2)N(C)C3=O)CC1 (stereo not given) | 1.87% | 0 | 4.04% | 0.57% | -3.15%
16 | Nc1ncnc2c1C(=O)N(c1ccc(C3CCC(CC(=O)O)CC3)cc1)CCO2 (stereo not given) | -5.92% | -2.07 | 4.97% | -12.3% | 1.21%
17 | C=C[C@H]1[C@H](O[C@@H]2O[C@H](CO)[C@@H](O)[C@H](O)[C@H]2O)OC=C(C(=O)OC)[C@H]1CC=O | 0.01% | 8.76 | 6.94% | -4.39% | 5.4%
18 | O=C(CSc1nnc2n(CCc3ccccc3)c(=O)c3ccccc3n12)Nc1ccc(Cl)cc1 | 3.11% | 0 | 4.48% | 0.352% | 2.15%
19 | COc1ccc(OC)c2c1cc1n2CC(C)(C(=O)NC2CCCCC2)N(CCc2ccccc2)C1=O (stereo not given) | -12.8% | -3.31 | -5.97% | -4.86% | -7.66%
20 | COCCCN1C(=O)c2cc3c(OC)ccc(OC)c3n2CC1(C)C(=O)NC1CCCCC1 (stereo not given) | -16.8% | -4.97 | -1.06% | 0.721% | -51.8%

Row | SMILES | activity change, negative = inhibition [1] | activity change, negative = inhibition [2] [%] | activity change, negative = inhibition [3] | activity change, negative = inhibition [4] | activity change, negative = inhibition [5]
21 | Clc1cccc(COc2cncc(N3CCNCC3)n2)c1 | -1.13% | 3.71 | -1.14% | -25% | 0.46%
22 | CCOC(=O)c1cc2n(n1)CC(C)(C(=O)NCc1ccccc1)N(c1cccc(Cl)c1C)C2=O (stereo not given) | -2.68% | 1.17 | 0.135% | -5.09% | -2.61%
23 | O=S(=O)(c1ccc(Cl)cc1)c1ccc(N2CCN(c3ccccn3)CC2)nn1 | -4.33% | 0 | 10% | 4.97% | 6.82%
24 | O=C(Nc1ccc(F)cc1)c1cc(-c2ccc[nH]2)n[nH]1 | -22.8% | -10.6 | -9.62% | -8.36% | -14.7%
25 | CN1C(=O)c2cc(C(=O)NC3CCCCC3)nn2CC1(C)C(=O)NC1CCCC1 (stereo not given) | 1.75% | 2.62 | -2.54% | 3.04% | -2.67%
26 | CCOC(=O)c1cc2n(n1)CC(C)(C(=O)NC1CCCCCC1)N(c1ccc(Cl)cc1)C2=O (stereo not given) | 3.4% | 5.45 | -7.96% | 1.66% | 4.01%
27 | Cc1ccc(NS(=O)(=O)c2ccc3[nH]c4c(c3c2)CCCC4)cc1C | -1.27% | 4.62 | -1.02% | -5.65% | 1.89%
28 | O=C(CCCCCCNC(=O)c1cnc(N(c2ccccc2)c2ccccc2)nc1)NO | -9.45% and -7.77% | -12 | -7.5% and 2.31% | -21.6% and 1.86% | -17.7% and 24.6%
29 | CCn1c(=O)n(CC(=O)NCc2ccc3c(c2)OCO3)c(=O)c2cnc(-c3ccc(Cl)cc3)nc21 | 3.39% | 1.64 | 1.28% | -1.19% | -0.823%
30 | CCN(C)C(=O)CN1C[C@@H]2C[C@H]1C(=O)N2c1cc(-c2ccccc2)ccc1OC | -3.06% | 0.541 | 1.82% | -3.58% | -0.277%
31 | COC(=O)C1(C)CCCC2(C)c3ccc(C(C)C)cc3C(O)C(O)C12 (stereo not given) | -2.66% | 6.79 | 9.05% | -8.55% | -1.64%
32 | COc1cccc(CNC(=O)Nc2nc(-c3ccncc3)cs2)c1 | -25.2% | -9.13 | -12.1% | -40.2% | -12.3%
33 | COC(=O)[C@H]1CN(C(=O)NC(C)C)CCN1S(C)(=O)=O | -6.82% | -13.1 | -3.02% | -8.13% | -4.89%
34 | CN(Cc1ccccc1)C1CCOC2(CCN(C(=O)CCc3nc4ccccc4[nH]3)CC2)C1 (stereo not given) | -8.41% | -1.03 | -8.3% | -3.45% | 2.98%
35 | CC1CCC(NC(=O)C2(c3ccccc3)Cn3c(cc4sccc43)C(=O)N2Cc2ccccc2)CC1 (stereo not given) | 6.15% | 3.74 | 7.23% | 0.02% | -0.497%
36 | CC(=O)O[C@@H]1C(O)C[C@@]2(C)C(CC[C@@H](C)C23Cc2c(O)cc4c(c2O3)CNC4=O)C1(C)C (stereo not given in full) | -0.086% | -14.5 | -2.05% | -27.5% | -5.48%
37 | Cc1nnc(-c2cc(-c3cccc(O)c3)ccn2)n1CCc1ccccc1 | -3.49% | -4.49 | -17.7% | -4.91% | -2.61%
38 | CCCn1c(=O)c2ccccc2n2c(=O)n(CC(=O)N3CCN(c4ccccc4F)CC3)nc12 | -4.48% | 4.22 | 1.23% | -6.28% | 0.026%
39 | Cc1ccc(Cl)cc1NC(=O)N1CCn2cccc2C1C (stereo not given) | -0.054% | 0 | 7.03% | -8.17% | 1.64%

— PubChem BioAssay AID1745853 (National Center for Advancing Translational Sciences (NCATS), 2022)
